This is one part of the list. Viral Rep nickase domains cut single-stranded DNA in vitro at 3 µM enzyme and 37 °C for 1 h; the strands have 90 letters, of which the middle is given. A value is the log2 ratio of uncut reads to the pool without enzyme; more negative means more cut, near 0 not cut, and no call is made. Reads are scaled to the total; values above 0 arise when much of the pool is cut.
tested on: T1, Rep nickase domain of tomato golden mosaic virus; test: uncleaved DNA left, log2 of reads against the no-enzyme library (log2 ratio); higher = less cleavage (more negative = more Rep cleavage of the k-mer); sequences stand for … in CTCGTCCG…ACCGGAGA
T1 sequence (residues 1-124, tag not shown): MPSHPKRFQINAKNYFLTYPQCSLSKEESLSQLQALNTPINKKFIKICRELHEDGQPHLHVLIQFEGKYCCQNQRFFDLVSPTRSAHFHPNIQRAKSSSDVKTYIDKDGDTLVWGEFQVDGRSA
Experimental: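 A pool of 90-nt single-stranded DNAs with seven random bases just before the constant AC of the nick site (name = the seven bases) was cut by 3 µM recombinant His6-SUMO-tagged Rep nickase domain (300 nM DNA, 50 mM HEPES pH 8.0, 50 mM NaCl, 1 mM MnCl2, 1 h, 37 °C, three replicates). Uncut DNA was amplified and sequenced.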

Row | Sequence | uncleaved DNA left (log2)
1 | ATGAGAT | 0.159
2 | TGATGCG | -0.0909
3 | GGGCTAT | 0.0287
4 | TTCTGCC | -0.0277
5 | TTTTGCG | -0.167
6 | CTAAGGG | 0.093
7 | AGATGTT | -0.461
8 | CATCAAT | 0.024
9 | CACGTTT | -0.101
10 | AGCGGTA | 0.123
11 | GTTTAAA | 0.255
12 | GTTCTAG | 0.15
13 | CAGCGAT | 0.177
14 | GCTGTGC | 0.0404
15 | AAGAACC | 0.0577
16 | TATGGTC | 0.0229
17 | ATATATC | 0.025
18 | GCCTGCG | -0.00433
19 | GCTGGGC | 0.0555
20 | ACATCCC | -0.0322

Row | Sequence | uncleaved DNA left (log2)
21 | CATCAAC | -0.0825
22 | TGAGATT | -0.0168
23 | TTCACTC | -0.0881
24 | GAAGCCA | -0.0508
25 | ACAACTC | -0.0831
26 | GTGCTAA | 0.175
27 | AACATCG | 0.00579
28 | CGCTGTC | -0.105
29 | GGGGGGC | 0.0155
30 | GCCCACA | -0.00354
31 | CTGTCTG | -0.0331
32 | TTAGGCT | 0.101
33 | TCGTCTA | -0.156
34 | CTCTCGC | -0.301
35 | AAAATGA | 0.0774
36 | ACGTATG | 0.105
37 | ATGAAGG | 0.094
38 | AGCACGT | 0.0138
39 | GTCGAGG | 0.383
40 | ATACAAA | -0.0591
